The source of these data is the supplement of paper PMC10322689.

± gives the standard deviation of the averaged measurements. Some of the results follow. Most values come without repeats; read them as rough.

The subject of the assay is mouse mesenchymal chondrosarcoma cells (HEY1-NCOA2). The assay can be described thus: XTT absorbance relative to DMSO control (cell viability) (fraction of DMSO control); higher = more viable cells / less growth inhibition. (Formazan colour is commonly taken as a measure of viable cells.)
`CS(=O)(=O)c1ccc(C(=O)Nc2ccc(Cl)c(-c3ccccn3)c2)c(Cl)c1` [Vismodegib] registered an XTT absorbance of 1.01.
`CN(C)CC[C@H](CSc1ccccc1)Nc1ccc(S(=O)(=O)NC(=O)c2ccc(N3CCN(Cc4ccccc4-c4ccc(Cl)cc4)CC3)cc2)cc1[N+](=O)[O-]`: the XTT absorbance came to 1.01.
As to `CCOC(=O)C(C)(C)Oc1ccc(Cl)cc1` [Clofibrate], the XTT absorbance turned out to be 0.935.
As for `CN(C)S(=O)(=O)c1ccc2c(c1)/C(=C/c1cc3c([nH]1)CCCC3)C(=O)N2`, the figure is 0.976; as for `COc1ccc(Cl)cc1C(=O)NCCc1ccc(S(=O)(=O)NC(=O)NC2CCCCC2)cc1` [Glibenclamide], 1.02; as for `CO[C@@H]1[C@H](OC(=O)/C=C/C=C/C=C/C=C/C(=O)O)CC[C@]2(CO2)[C@H]1[C@@]1(C)O[C@@H]1CC=C(C)C` [Fumagillin], 0.732.
For `Cn1cnc2c(NCc3ccccc3)nc(NCCO)nc21` [Olomoucine], the XTT absorbance was found to be 0.943 ± 0.066.
The compound `C=CCNC1=C2C[C@@H](C)C[C@H](OC)[C@H](O)[C@@H](C)/C=C(\C)[C@H](OC(N)=O)[C@@H](OC)/C=C\C=C(/C)C(=O)NC(=CC1=O)C2=O` gave an XTT absorbance of 0.273.
In turn, `COc1ccc(OC)c2c(=S)c3ccccc3[nH]c12` registered an XTT absorbance of 0.958.
Compound `COc1cc2c(cc1OC)-c1[nH]nc(Nc3cccc(F)c3)c1C2` [PDGF receptor tyrosine kinase inhibitor IV] displayed an XTT absorbance of 0.457.
Under `O=c1oc2c(O)c(O)cc3c(=O)oc4c(O)c(O)cc1c4c23` [Ellagic acid] stands 0.97.
As for `CC(C)C[C@H](NC(=O)[C@H](Cc1ccccc1)NC(=O)c1cnccn1)B(O)O` [bortezomib], the figure is 0.195.
Under `Nc1nc2c(nc(Sc3ccc(Cl)cc3)n2C2O[C@@H]3CO[P+](O)(S)OC3[C@@H]2O)c(=O)[nH]1` (some centres undefined) stands 0.932 ± 0.025.
For the compound `CC(C)CC(NC(=O)CNC(=O)OCc1ccccc1)C(=O)NC(Cc1ccccc1)C(=O)CCl` (centres undefined), the XTT absorbance is 0.936.
Under `CC(C)CC(=O)N[C@H](C(=O)N[C@H](C(=O)N[C@@H](CC(C)C)[C@@H](O)CC(=O)N[C@@H](C)C(=O)N[C@@H](CC(C)C)[C@@H](O)CC(=O)O)C(C)C)C(C)C` [Pepstatin A] stands 0.938; under `N#CC[C@H](C1CCCC1)n1cc(-c2ncnc3[nH]ccc23)cn1` [Ruxolitinib], 0.909.
In turn, `O=Nc1c(-c2c(O)[nH]c3cc(Br)ccc23)[nH]c2ccccc12` [GSK-3 inhibitor IX] showed an XTT absorbance of 0.99.
As for `CC1=Nc2ccc(Cl)cc2S(=O)(=O)N1` [Diazoxide], the figure is 0.921; as for `COc1cc(O)c(CC=C(C)C)c(O)c1C(=O)/C=C/c1ccc(O)cc1` [Xanthohumol], 0.907; as for `NC(=O)NO` [Hydroxyurea], 0.997.
As for `CCC(=C/[C@H](C)C/C=C/C(C)=C/[C@@H](C)C(=O)[C@@H](C)[C@H](O)[C@@H](C)C/C(C)=C/C(=O)O)/C=C/[C@@H]1OC(=O)C=C[C@@H]1C` [Leptomycin B*], the figure is 0.196; as for `NC(=O)c1ccc2nc(-c3ccc(Oc4ccc(Cl)cc4)cc3)[nH]c2c1` [Chk2 inhibitor II], 1.02; as for `Cc1ccc2nc(NCCN)c3ncc(C)n3c2c1`, 0.875.
`CCCCCCCCCCCCCCOc1ccc(C(=O)O)o1` came in with an XTT absorbance of 0.961.
